# From the supplement of paper PMC3334620
# In all, about 33,000 sequences were measured (“E-score (-0.5 to 0.5)”: median about -0.016, highest 2% from about 0.31 on). Some of the results follow.
# Target: Cst6 (UniProt P40535)
# Test: PBM E-score (8-mer binding enrichment) (E-score (-0.5 to 0.5)); higher = stronger / more preferred TF binding; most listed sequences are background and not binding sites
# Conditions: protein concentration: 200 nM; construct: GST-DNA-binding domain
# Procedure, shortened: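 Using PURExpress in vitro transcription/translation, GST-tagged yeast transcription factors were made in full-length or DNA-binding-domain form. These were applied at about 100-200 nM to double-stranded universal all-10-mer Agilent arrays, and bound protein was detected with fluorescent anti-GST. Scans were normalised with masliner before the Universal PBM Analysis Suite assigned E-scores to ungapped eight-base words pooled with their reverse complements.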
row,Sequence,PBM E-score
1,GCTGGTTA,0.0697
2,AGAGTCCA,-0.0252
3,ATTCGGTG,0.154
4,AAGCTACT,-0.0892
5,CTACCGGC,-0.217
6,ACCTTGCG,0.117
7,CAAAGAAA,0.106
8,TTCCGGAA,-0.201
9,GACTGACA,0.077
10,GACTCTCC,-0.116
11,AAATCCGT,0.235
12,GACAGAAC,0.0521
13,CTGCAAGA,-0.0492
14,ATAACCAT,0.014
15,ACCCCATG,-0.00368
16,GCTCCATA,0.0655
17,CGTGCTCC,-0.15
18,ATTATCGG,-0.0321
19,GGGAGTCA,-0.153
20,ACCCCGGG,-0.128
21,ACCTCGCG,0.0421
22,CTCTTTGA,0.0383

row,Sequence,PBM E-score
1,ATCAATTG,0.288
2,GCCACCCA,-0.358
3,ATGAAGGA,0.0888
4,AACTCCTT,0.0354
5,GAGTCATC,0.116
6,CTGGATGC,-0.323
7,CCGTTGCA,-0.0788
8,ACGTGCAG,0.0472
9,CAATTGAA,-0.0121
10,GTTATGAA,0.117
11,ACCTACCG,-0.13
12,CGCTGAAG,-0.18
13,GTAAGCTA,0.184
14,CAAACAAC,0.145
15,ATAAACCC,0.0869
16,ACTTCTGA,0.105
17,ACTACCTC,0.0105
18,CCCACACA,-0.194
19,ACGACCTG,-0.0974
20,TAAGCCGA,-0.00895
21,AAGTGAGC,-0.0648
22,GGGGATGA,-0.0642

row,Sequence,PBM E-score
1,ACTTACCC,-0.048
2,CCTGATGA,0.205
3,AAGAATCG,0.229
4,GACAACGC,0.155
5,ACTTCGTA,-0.0634
6,AGCGTCAG,0.177
7,AGCTCGCC,-0.189
8,GCATCACA,0.222
9,GTCTTGCA,0.00819
10,AATCTACT,0.15
11,GCATCGAA,-0.0745
12,GCCTACAC,-0.0404
13,ATTCGTGG,-0.00517
14,CTGCGGGA,-0.321
15,AGACCGTG,-0.137
16,ACGTGAGC,-0.132
17,TAACATCA,0.399
18,ACCCAGGG,-0.193
19,GAATCCGC,-0.262
20,TAGGACGA,-0.175
21,CCGACCGC,-0.328
22,ACGCGTCA,0.381

row,Sequence,PBM E-score
1,GTCTGACA,0.0375
2,ATGCATGA,0.3
3,CTAGACTC,-0.329
4,AAGCCTAA,-0.0639
5,ATACCGTC,0.104
6,AAGTCTCC,-0.136
7,CATGAGCA,-0.104
8,CAATTGTG,0.13
9,CGCAGATC,-0.112
10,CGACTACG,-0.0794
11,CTGATACA,-0.0616
12,AGCCACAC,-0.0643
13,AAACTCAT,0.188
14,CGGCGCCG,0.384
15,TAAACTCA,0.104
16,CGAGTCAA,0.024
17,AACTCTCC,-0.0629
18,AGACATGC,-0.245
19,TGCGTGAA,0.114
20,CGAAACAG,-0.0555
21,CAGCTGTC,-0.0675
22,AGGTGCAT,-0.0945

row,Sequence,PBM E-score
1,GCTACCAC,-0.124
2,AACACCGA,0.0511
3,AAGGGGTA,-0.305
4,GCTGGTAA,-0.0409
5,CGGCATCA,0.259
6,CTCGAGAA,-0.0292
7,GTAAAACA,-0.0042
8,AGTAGTTA,0.0343
9,AGTCGGAT,-0.16
10,CGCTATGA,0.0594
11,ATGCTAGG,-0.0393
12,CGGCGTCC,0.113
13,CGAGCCCA,-0.158
14,AGTCGCCC,-0.116
15,ACCGCTAC,-0.299
16,AAGTCATT,0.0478
17,CAATGAGC,-0.0115
18,TATAAAAA,0.273
19,AGAGGTAG,-0.236
20,ATTGCGTA,0.415
21,AAGTGGCC,-0.245
22,AAGTACTA,0.195
